Measured values reported in PubChem BioAssay AID624417 (National Center for Advancing Translational Sciences (NCATS), 2012).
Hit rate of the full screen: of about 410,000 compounds, about 6,400 (1.6%) were called active. Inconclusive means that the source gave no clear call. Such entries were picked first, then a sample of the others. The call rests on the fitted dose curve; in most records, active means well fitted inhibition curve with a large enough effect; inconclusive means small, poorly fitted or top-dose-only effect; inactive means no such curve, though single readings can be large or run the other way. Potencies of inconclusive entries are left out as doubtful fits.
Further: nearly all actives have a fitted effect of over 55% in size.
On the % scale 0 is the no-effect control and ±100 the full control effect; potency means the concentration at half of the fitted maximal effect; tags describe the fitted curve by direction and shape.

What follows are compounds tested against Glucagon-like peptide 1 receptor (Homo sapiens) (UniProt P43220) (assay: qHTS of GLP-1 Receptor Inverse Agonists (Inhibition Mode)). Settings: HEK293 GLP-1R CRE-luciferase, luminescence, 24 h, GLP-1R form is constitutively active; activity change, negative = inhibition: at 38.3 µM (top of the series) unless noted.
Chain of UniProt P43220 (P43220 whole entry, looked up): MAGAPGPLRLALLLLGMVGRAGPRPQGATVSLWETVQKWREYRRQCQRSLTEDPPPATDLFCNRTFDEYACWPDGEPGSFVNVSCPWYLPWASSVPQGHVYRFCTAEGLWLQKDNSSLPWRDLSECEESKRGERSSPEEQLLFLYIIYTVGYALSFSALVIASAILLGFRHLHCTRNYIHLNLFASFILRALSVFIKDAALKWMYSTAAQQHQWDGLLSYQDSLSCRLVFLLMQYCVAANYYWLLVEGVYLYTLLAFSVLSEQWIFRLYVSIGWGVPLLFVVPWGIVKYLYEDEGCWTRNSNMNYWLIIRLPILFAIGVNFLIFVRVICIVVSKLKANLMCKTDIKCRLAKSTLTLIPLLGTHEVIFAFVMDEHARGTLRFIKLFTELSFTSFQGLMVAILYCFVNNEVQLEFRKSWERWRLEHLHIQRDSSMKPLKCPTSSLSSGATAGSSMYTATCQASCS
Outline: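 Inverse agonism was detected as reduced cAMP-driven luciferase luminescence after 24 h compound treatment. The cells were HEK293 clones expressing constitutively active human GLP-1R with the reporter. Reporter-only and GPR119 cell lines served as counterscreen controls.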
With `COc1ccc(S(=O)(=O)Nc2ccccc2-c2nc3ccccc3[nH]c2=O)cc1` the Potency was inconclusive [inhibitor, partial curve, poor fit].
In the case of `CC(=O)N/N=C(\C)CC(=O)Nc1cccc(C(F)(F)F)c1`, the Potency is reported as inconclusive [inhibitor, single point].
For `Cc1ccc(-n2cnc3cc(C(=O)NC4CCCCCC4)ccc32)c(C)c1`, the Potency was inconclusive [inhibitor, single point].
For `CC(C)c1c(C(=O)N/N=C/c2cccc(OCc3ccccc3)c2)nnn1-c1nonc1N`, the Potency was inconclusive [inhibitor, partial curve, poor fit].
For `CSC1(SC2=NCCN2)SC2(NCCN2)S1`, the Potency was inconclusive [inhibitor, partial curve, poor fit].
For `O=C(NC1CCCCC1)N(Cc1ccccc1)Cc1ccco1`, the Potency was inconclusive [inhibitor, partial curve, poor fit].
With `Cc1ccc(S(=O)(=O)N(CC(O)CN2CCCCC2)c2cccc([N+](=O)[O-])c2)cc1` (stereo unspecified) the Potency was inconclusive [inhibitor, single point].
In the case of `CCOC(=S)NC(=O)c1sc2ccccc2c1Cl`, the “activity change, negative = inhibition” value is reported as inactive: 0%.
`COc1cccc(C(O)c2nc(-c3ccc4ccccc4c3)cs2)c1` (stereo unspecified) was tested, and the Potency was inconclusive [inhibitor, single point].
For `N#CCCn1nc(-c2ccc([N+](=O)[O-])cc2)cc1Nc1ccccc1NC(=O)C(F)(F)F`, the Potency was inconclusive [inhibitor, single point].
`CN1CCN(c2ccc(NC(=O)C(C)(c3ccccc3)c3ccccc3)cc2)CC1` was tested, and the Potency was inconclusive [inhibitor, full curve, poor fit].
With `CCS(=O)(=O)n1nc(-c2ccco2)nc1NCc1ccc(C(C)C)cc1` the Potency was inconclusive [inhibitor, single point].
With `CC(C)c1cc(C(=O)NCc2ccc(F)cc2)no1` the “activity change, negative = inhibition” value was inactive: 4.53%.
With `CCCCn1c(SCC(=O)Nc2cccc(OC)c2)nc2ccc(N3CCOCC3)cc2c1=O` the “activity change, negative = inhibition” value was inactive: -13.6%.
`COc1cccc(CNC(=O)C2CCN(S(=O)(=O)c3ccc(Br)s3)CC2)c1` was tested, and the Potency was inconclusive [inhibitor, single point].
In the case of `CCOC(=O)c1c(C)[nH]c(C(=O)COC(=O)C23CC4CC(CC(Cl)(C4)C2)C3)c1C`, the Potency is reported as inconclusive [inhibitor, single point].
For `Cc1c(Cl)cccc1NC(=O)CN(C1CCCCC1)S(C)(=O)=O`, the “activity change, negative = inhibition” value was inactive: 6.61%.
`Cc1ccc(C(=O)c2cn(Cc3cc(C)ccc3C)c3nc(C)ccc3c2=O)cc1` was tested, and the Potency was inconclusive [inhibitor, partial curve, poor fit].
With `Cc1cc(C)n(-c2nc3ccccc3c(=O)n2OCc2ccc(Cl)cc2)n1` the Potency was inconclusive [inhibitor, partial curve, poor fit].
In the case of `Fc1ccc(-n2nnc(-c3cccnc3)n2)cc1`, the “activity change, negative = inhibition” value is reported as inactive: 21.9%.
In the case of `Cc1cccc2nc(CSc3nc4ccccc4o3)cn12`, the “activity change, negative = inhibition” value is reported as inactive: 35.3%.
With `O=c1cc2c(c(-c3ccccc3)n1Cc1ccccc1)[C@@H](CCO)NC2` the “activity change, negative = inhibition” value was inactive: 5.87%.
For `Cc1ccc(-c2noc(CN(C(=O)c3cccc(Br)c3)C(C)C)n2)cc1`, the Potency was inconclusive [inhibitor, partial curve, poor fit].
`COCc1cc(Sc2c(Cl)cccc2Cl)nc(-c2ccccc2)n1` was tested, and the Potency was inconclusive [inhibitor, partial curve, poor fit].
For `CCCNc1ccc(S(=O)(=O)N(C(C)C)C(C)C)cn1`, the Potency was inconclusive [inhibitor, single point].
In the case of `CC1CCCN(C(=O)c2ccc(COc3ccccc3Br)cc2)C1` (stereo unspecified), the Potency is reported as inconclusive [inhibitor, full curve, poor fit].
With `CCOC(=O)N1CCN(Cc2nc3cc(NC(=O)c4ccc(F)cc4)ccc3n2C(C)C)CC1` the Potency was inconclusive [inhibitor, full curve, poor fit].
`COc1ccc(C(=O)/C(=C\c2ccco2)N2C=CC=CC2=C(C#N)C#N)cc1` was tested, and the Potency was inconclusive [inhibitor, full curve, poor fit].
For `CCOc1ccc2[nH]cc(C(=O)NCc3ccccc3)c(=O)c2c1`, the Potency was inconclusive [inhibitor, single point].
In the case of `O=C(CNC(c1ccccc1)c1ccccc1)Nc1ccccc1-c1ccccc1`, the Potency is reported as inconclusive [inhibitor, partial curve, poor fit].
`COc1ccc(NC(=S)NC(=O)/C=C/c2ccco2)cc1` was tested, and the Potency was inconclusive [inhibitor, single point].
With `COc1cccc(C2C(C(=O)c3cccs3)=C(O)C(=O)N2CCN2CCOCC2)c1OC` (stereo unspecified) the “activity change, negative = inhibition” value was inactive: 16.7%.
With `COc1ccc(CCCNC(=O)C2Cc3c(-c4cccc(C(C)=O)c4)ccnc3O2)cc1` (stereo unspecified) the Potency was inconclusive [inhibitor, full curve, poor fit].
In the case of `CCN(CC)c1ccc(/C=N/NC(=S)NC)c(O)c1`, the Potency is reported as inconclusive [inhibitor, full curve, poor fit].
`Cc1ccc(C(=O)NC(C)C2CC3CCC2C3)c(C)c1` (stereo unspecified) was tested, and the Potency was inconclusive [inhibitor, partial curve].
With `CCOC(=O)C1CCCN(C(=O)C2CCN(Cc3nc(-c4ccc(Cl)cc4)oc3C)CC2)C1` (stereo unspecified) the Potency was inconclusive [inhibitor, partial curve, poor fit].
`NC(=O)CSc1nc2cc3c(cc2c(=O)n1CCCCCC(=O)NCc1ccc2c(c1)OCO2)OCO3` was tested, and the “activity change, negative = inhibition” value was inactive: 0.299%.
For `O=C(CSc1nc2ccc(Cl)cc2[nH]1)c1c[nH]c2ccccc12`, the Potency was inconclusive [inhibitor, single point].
With `COc1ccc(OC)c(NC(=O)CSc2c3c(nc4cc(Cl)ccc24)CCCC3)c1` the “activity change, negative = inhibition” value was inactive: 4.78%.
For `O=C(COc1ccccc1-c1ccccc1)N/N=C/c1ccncc1`, the Potency was inconclusive [inhibitor, single point].
With `Cc1ccc(Cn2c(CN3CCC(C(=O)NCc4cccnc4)CC3)cc3ccccc32)cc1` the Potency was inconclusive [inhibitor, single point].
